Assay results: patent US11000038B2, “Pyridone compounds and agricultural and horticultural fungicides containing the same as active ingredients” (priority 2017, dated 2021)

Assays:
[1] = test system: rice blast fungi (Magnaporthe grisea); type: in vivo; conditions: spray treatment of rice plants; control value=100{1-(n/3)}
[2] = test system: tomato late blight fungi (Phytophthora infestans); type: in vivo; conditions: spray treatment of tomato plants; control value=100{1-(n/3)}
[3] = test system: cucumber anthracnose fungi (Colletotrichum orbiculare); test: Test Example H: cucumber anthracnose, spray treatment of cucumber plants; conditions: 250 ppm spray, 2.5 ml/pot, cucumber Sagami Hanjiro; 6 to 10 days from inoculation

SMILES | Test A control value class (rice blast) [1] | Test F control value class (tomato late blight) [2] | Test H control value class (cucumber anthracnose) [3]
COc1cc(F)c(-c2c(Cl)c(=O)c(Cl)cn2C2CCCCC2)c(F)c1 [Compound 28] | H (H shows the control value of more than 50%) | L (L shows the control value of 50% or less) | H (H shows the control value of more than 50%)
O=c1c(Br)cn(C2CCCCC2)c(-c2c(F)cc(F)cc2F)c1Cl [Compound 29] | H (H shows the control value of more than 50%) | L (L shows the control value of 50% or less) | H (H shows the control value of more than 50%)
O=c1c(Br)cn(C2CCCCC2)c(-c2c(F)cc(F)cc2F)c1Br [Compound 30] | H (H shows the control value of more than 50%) | L (L shows the control value of 50% or less) | H (H shows the control value of more than 50%)
O=c1c(Cl)cn(-c2ccccc2F)c(-c2c(F)cc(F)cc2F)c1Br [Compound 31] | H (H shows the control value of more than 50%) | L (L shows the control value of 50% or less) | H (H shows the control value of more than 50%)
COc1cc(F)c(-c2c(Cl)c(=O)c(Cl)cn2-c2ccccc2F)c(F)c1 [Compound 32] | H (H shows the control value of more than 50%) | L (L shows the control value of 50% or less) | H (H shows the control value of more than 50%)
COc1cc(F)c(-c2c(Br)c(=O)c(Cl)cn2-c2ccccc2F)c(F)c1 [Compound 33] | H (H shows the control value of more than 50%) | L (L shows the control value of 50% or less) | H (H shows the control value of more than 50%)
O=c1c(Cl)cn(-c2cccnc2Cl)c(-c2c(F)cc(F)cc2F)c1Br [Compound 34] | H (H shows the control value of more than 50%) | H (H shows the control value of more than 50%) | H (H shows the control value of more than 50%)
O=c1c(Cl)cn(-c2cccnc2Cl)c(-c2c(F)cc(F)cc2F)c1Cl [Compound 35] | H (H shows the control value of more than 50%) | H (H shows the control value of more than 50%) | H (H shows the control value of more than 50%)
O=c1c(Br)cn(-c2cccnc2Cl)c(-c2c(F)cc(F)cc2F)c1Cl [Compound 36] | H (H shows the control value of more than 50%) | L (L shows the control value of 50% or less) | H (H shows the control value of more than 50%)
O=c1c(Br)cn(-c2ccccc2Br)c(-c2c(F)cc(F)cc2F)c1Cl [Compound 37] | H (H shows the control value of more than 50%) | L (L shows the control value of 50% or less) | H (H shows the control value of more than 50%)
COc1cc(F)c(-c2c(Br)c(=O)c(Cl)cn2-c2cccnc2OC)c(F)c1 [Compound 39] | H (H shows the control value of more than 50%) | L (L shows the control value of 50% or less) | H (H shows the control value of more than 50%)
COc1cc(F)c(-c2c(Cl)c(=O)c(Br)cn2-c2cccnc2OC)c(F)c1 [Compound 40] | H (H shows the control value of more than 50%) | L (L shows the control value of 50% or less) | H (H shows the control value of more than 50%)
CC(C)C(C)n1cc(Cl)c(=O)c(Cl)c1-c1c(F)cc(F)cc1F (stereo not drawn) [Compound 41] | H (H shows the control value of more than 50%) | L (L shows the control value of 50% or less) | H (H shows the control value of more than 50%)
CC(C)C(C)n1cc(Cl)c(=O)c(Br)c1-c1c(F)cc(F)cc1F (stereo not drawn) [Compound 42] | H (H shows the control value of more than 50%) | L (L shows the control value of 50% or less) | H (H shows the control value of more than 50%)
CC(C)C(C)n1cc(Br)c(=O)c(Cl)c1-c1c(F)cc(F)cc1F (stereo not drawn) [Compound 43] | H (H shows the control value of more than 50%) | L (L shows the control value of 50% or less) | H (H shows the control value of more than 50%)
O=c1c(Br)cn(-c2ccccc2Br)c(-c2c(F)cc(F)cc2F)c1Br [Compound 44] | H (H shows the control value of more than 50%) | L (L shows the control value of 50% or less) | H (H shows the control value of more than 50%)
O=c1c(Cl)cn(-c2ccccc2Br)c(-c2c(F)cc(F)cc2F)c1Cl [Compound 45] | H (H shows the control value of more than 50%) | L (L shows the control value of 50% or less) | H (H shows the control value of more than 50%)
O=c1c(Cl)cn(-c2ccccc2Br)c(-c2c(F)cc(F)cc2F)c1Br [Compound 46] | H (H shows the control value of more than 50%) | L (L shows the control value of 50% or less) | H (H shows the control value of more than 50%)
CC(C)C(C)n1cc(Br)c(=O)c(Br)c1-c1c(F)cc(F)cc1F (stereo not drawn) [Compound 47] | H (H shows the control value of more than 50%) | L (L shows the control value of 50% or less) | H (H shows the control value of more than 50%)
O=c1c(Cl)cn(Cc2ccccc2)c(-c2c(F)cc(F)cc2F)c1Cl [Compound 48] | H (H shows the control value of more than 50%) | L (L shows the control value of 50% or less) | H (H shows the control value of more than 50%)
COc1cc(F)c(-c2c(Br)c(=O)c(Cl)cn2C(C)C(C)C)c(F)c1 (stereo not drawn) [Compound 50] | H (H shows the control value of more than 50%) | L (L shows the control value of 50% or less) | H (H shows the control value of more than 50%)
COc1cc(F)c(-c2c(Cl)c(=O)c(Br)cn2C(C)C(C)C)c(F)c1 (stereo not drawn) [Compound 51] | L (L shows the control value of 50% or less) | L (L shows the control value of 50% or less) | H (H shows the control value of more than 50%)
COc1cc(F)c(-c2c(Cl)c(=O)c(Cl)cn2C(C)C(C)C)c(F)c1 (stereo not drawn) [Compound 52] | H (H shows the control value of more than 50%) | L (L shows the control value of 50% or less) | H (H shows the control value of more than 50%)
COc1cc(F)c(-c2c(Br)c(=O)c(Br)cn2C(C)C(C)C)c(F)c1 (stereo not drawn) [Compound 53] | H (H shows the control value of more than 50%) | L (L shows the control value of 50% or less) | H (H shows the control value of more than 50%)
O=c1c(Br)cn(-c2ccccc2Cl)c(-c2c(F)cccc2F)c1Cl [Compound 54] | H (H shows the control value of more than 50%) | L (L shows the control value of 50% or less) | H (H shows the control value of more than 50%)
O=c1c(Br)cn(-c2ccccc2Cl)c(-c2c(F)cccc2F)c1Br [Compound 55] | H (H shows the control value of more than 50%) | L (L shows the control value of 50% or less) | H (H shows the control value of more than 50%)
O=c1c(Br)cn(Cc2ccccc2)c(-c2c(F)cc(F)cc2F)c1Cl [Compound 56] | H (H shows the control value of more than 50%) | L (L shows the control value of 50% or less) | L (L shows the control value of 50% or less)
